{
  "source": "PubChem BioAssay AID2546",
  "about": "(National Center for Advancing Translational Sciences (NCATS), 2010)",
  "note": "Out of some 310,000 compounds screened, about 11,000 (3.5%) were called active. Inconclusive means that the source gave no clear call. Such entries were picked first, then a sample of the others. The call rests on the fitted dose curve; in most records, active means well fitted inhibition curve with a large enough effect; inconclusive means small, poorly fitted or top-dose-only effect, or effect the other way; inactive means flat fitted curve, though single readings scatter. No potency is given beside an inconclusive call; the fits are too rough.",
  "data": [
    {"assay": "VP16 counterscreen qHTS for inhibitors of ROR gamma transcriptional activity;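 further: Gal4-VP16 expression switched on by copper sulfate through the metallothionein promoter; nearly all actives have a fitted effect of over 50% in size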; further: potency means the concentration at half of the fitted maximal effect; tags describe the fitted curve by direction and shape; on activity, negative = inhibition: on the % scale 0 is the no-effect control and ±100 the full control effect", "settings": "Drosophila S2 Gal4-VP16 UAS-luciferase, luminescence, 20 h; activity, negative = inhibition: at 53.6 µM (top of the series)", "values": [
      {"compound": "CC(C1CC1)N(Cc1ccccc1)C(=S)Nc1ccccc1", "note": "(stereo unspecified)", "Potency": "inconclusive [inhibitor, single point]"},
      {"compound": "Cc1ccc(-c2nn(-c3ccccc3)cc2C(=O)N2CCN(c3ccccn3)CC2)cc1", "Potency": "inconclusive [inhibitor, single point]"},
      {"compound": "N#Cc1ccccc1NC(=S)Nc1ccc(F)cc1", "Potency": "active: 20 µM"},
      {"compound": "Cc1cc(O)cc(O)c1-c1onc(C(F)(F)F)c1-c1cscn1", "Potency": "inconclusive [inhibitor, single point]"},
      {"compound": "O=C(Nc1ccc(-c2nc3ncccc3o2)cc1)c1ccc(Br)o1", "Potency": "inconclusive [inhibitor, single point]"},
      {"compound": "CCc1ccc2ncc(S(=O)(=O)c3ccc(C)c(C)c3)c(N3CCCC3)c2c1", "Potency": "inconclusive [inhibitor, single point]"},
      {"compound": "COc1ccc(OC)c(NC(=O)CCCN2C(=S)NC(C)(C)CC2C)c1", "note": "(stereo unspecified)", "Potency": "active: 17.8 µM"},
      {"compound": "COc1ccc(C(=O)Nc2ccccc2C(=O)Nc2ccc(C(=O)O)cc2)cc1", "Potency": "inconclusive [inhibitor, single point]"},
      {"compound": "O=C(CCCSc1nnnn1-c1cccc2ccccc12)c1ccc(F)cc1", "activity, negative = inhibition": "inactive: -27%"},
      {"compound": "O=C(C#Cc1ccccc1)Nc1ccccc1F", "Potency": "inconclusive [inhibitor, single point]"},
      {"compound": "O=C(NC(=S)Nc1cccc(C(F)(F)F)c1)c1csnn1", "Potency": "inconclusive [inhibitor, single point]"},
      {"compound": "O=[N+]([O-])c1ccc(-c2nc(-c3cccs3)c(-c3cccs3)[nH]2)cc1", "Potency": "inconclusive [inhibitor, single point]"},
      {"compound": "COC(=O)NC(/C=C/c1ccco1)[C@@]1(C(=O)OC)CCCC1=O", "note": "(stereo partly specified)", "activity, negative = inhibition": "inactive: 5.29% [at 10 µM]"},
      {"compound": "CN(c1ccccc1)S(=O)(=O)c1cccc(NC(=O)Nc2ccc(Cl)cc2C#N)c1", "Potency": "inconclusive [activator, single point]"},
      {"compound": "Cc1ccc(C)c2c1[nH]c1ccccc12", "activity, negative = inhibition": "inactive: -3.17%"},
      {"compound": "C/C(=N\\NC(=O)c1n[nH]c2c1CCC2)c1cccs1", "Potency": "active: 3.55 µM"},
      {"compound": "O=C(N/N=C\\c1cc2c(cc1Cl)OCO2)c1cccs1", "Potency": "inconclusive [activator, single point]"},
      {"compound": "CCCCCc1ccc(-c2ccc(/C=C/C(=O)O)cc2)nc1", "Potency": "inconclusive [inhibitor, partial curve]"},
      {"compound": "Cc1ccccc1NCc1ccc(O)c2ncccc12", "Potency": "active: 11.2 µM"},
      {"compound": "O=C(Nc1ccccc1)C(=O)Nc1ccccn1", "Potency": "active: 5.01 µM"},
      {"compound": "O=C(N/N=C/c1ccc([N+](=O)[O-])o1)c1cc2ccccc2o1", "Potency": "inconclusive [inhibitor, single point]"}
    ]}
  ]
}
